{"source": "PubChem BioAssay AID686978", "about": "(National Center for Advancing Translational Sciences (NCATS), 2013)", "note": "Values joined by “and” are separate entries in the source; they are usually repeats but may differ in a detail not shown here. Equal entries are not always repeated. About 64,000 (15%) of roughly 420,000 compounds were called active. Inconclusive means that the source gave no clear call. Such entries were picked first, then a sample of the others. Calls come from the whole dose curve; as a rule, active = well fitted inhibition curve with a large enough effect; inconclusive = small, poorly fitted or top-dose-only effect; inactive = flat fitted curve, though single readings scatter. A potency beside an inconclusive call is a rough fit, not a confirmed value. % is set by controls: 0 for no effect and ±100 for the full control effect; potency is the fitted concentration of half-maximal effect; tags give direction and shape of the fitted curve.", "data": [{"assay": "qHTS for Inhibitors of human tyrosyl-DNA phosphodiesterase 1 (TDP1): qHTS in cells in absence of CPT; note: nearly all actives have a fitted effect of over 55% in size", "conditions": "DT40 Tdp1-/- hTDP1 cells, no CPT, ATP luminescence, 48 h; activity change, negative = growth inhibition: at 46.2 µM (top of the series)", "method_in_brief": "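Readout: luminescence from CellTiter-Glo after 30 min in the dark at RT. Cells: DT40 Tdp1-/- with stable hTDP1, 400/well. Exposure: compounds alone, ≥48 hr, 37 °C.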", "values": [{"compound": "Cc1ccc(NC(=O)c2nnn(Cc3cccc(C(F)(F)F)c3)c2N)c(C)c1", "Potency": "inconclusive: 29.1 µM [inhibitor, single point]"}, {"compound": "Cc1ccc(N2C(=O)c3ccc(C(=O)Nc4cccnc4)cc3C2=O)c(C)c1", "activity change, negative = growth inhibition": "inconclusive: -32.3% [inhibitor]"}, {"compound": "O=C(NCC1CCCO1)c1nc2c(nnn2Cc2ccc(F)cc2)c(=O)[nH]1", "note": "(stereo unspecified)", "Potency": "inactive"}, {"compound": "O=C(CC(c1ccco1)C1CCCCC1=O)c1ccccc1", "note": "(stereo unspecified)", "Potency": "inconclusive: 35.5 µM [inhibitor, single point]"}, {"compound": "N#Cc1c(-c2ccco2)nc(SCc2ccc(F)cc2)[nH]c1=O", "Potency": "inactive"}, {"compound": "CCOC(=O)c1ccc(NC(=O)c2ncn3c2C(=O)NC[C@H]3C)cc1", "Potency": "inconclusive: 29.1 µM [inhibitor, single point]"}, {"compound": "O=C(NCC1CCCCC1)c1ccc(Cl)nc1", "Potency": "inactive"}, {"compound": "CCOC(=O)N1CCN(C(=O)CN(Cc2ccccc2)S(=O)(=O)c2ccc(OC)c(C)c2)CC1", "Potency": "inconclusive: 16.4 µM [inhibitor, single point]"}, {"compound": "O=C(Nc1ccccc1N1CCOCC1)c1ccc([N+](=O)[O-])o1", "Potency": "active: 14.6 µM"}, {"compound": "CCOC(=O)[C@]12CCCC=C1N(Cc1ccc(Cl)cc1Cl)C(=O)[C@H](CC(=O)N1CCCC1)C2", "Potency": "inconclusive: 20.6 µM [inhibitor, single point]"}, {"compound": "Cc1oc2ccc(NS(=O)(=O)c3cccc4cccnc34)cc2c1C(=O)OC(C)C", "Potency": "inconclusive: 29.1 µM [inhibitor, single point]"}, {"compound": "Brc1ccc(-c2cn3ccccc3n2)cc1", "Potency": "inconclusive: 16.4 µM [inhibitor, single point]"}, {"compound": "COc1ccc(CNC(=O)CCc2c(C)c3ccc(OC)c(C)c3oc2=O)cc1OC", "Potency": "inactive"}, {"compound": "COc1ccc(CN([C@H](C)CO)S(=O)(=O)N(Cc2ccccc2)[C@H](CO)C(C)C)cc1", "Potency": "active: 17.8 µM and active: 16.4 µM"}, {"compound": "Cc1ccc(C(=O)C[n+]2cccc3cccc(O)c32)cc1", "Potency": "inconclusive: 17.8 µM [inhibitor, single point]"}, {"compound": "Cc1ccc(NC(=O)Cn2nnc(C(=O)NCc3ccc(Cl)cc3)c2N)cc1F", "Potency": "inactive"}, {"compound": "CCOc1cc(N2CCOCC2)c(OCC)cc1NC(=O)c1cc(S(=O)(=O)N2CCOCC2)ccc1F", "Potency": "inconclusive: 25.9 µM [inhibitor, single point]"}, {"compound": "COc1ccc(NC(=O)Cn2cc(C(=O)c3ccncc3)c(=O)c3cc(C)ccc32)cc1Cl", "Potency": "inactive"}, {"compound": "O=S(=O)(c1ccc(F)c(F)c1)N1CCN(c2ncccn2)CC1", "Potency": "inactive"}, {"compound": "O=S1c2ccccc2Nc2ccccc21", "Potency": "inactive"}, {"compound": "COC(=O)c1ccc(-n2nnc(-c3nc(-c4ccccc4Cl)no3)c2C)cc1", "Potency": "inactive"}, {"compound": "Cc1cc(S(=O)(=O)N2CCN(Cc3ccc4c(c3)OCO4)CC2)cc(C)c1N1CCCC1=O", "Potency": "inconclusive: 16.4 µM [inhibitor, single point]"}, {"compound": "CC1(Cc2cccc(F)c2)C(=O)Nc2ccc(S(=O)(=O)NC3CCCCC3)cc21", "note": "(stereo unspecified)", "Potency": "inconclusive: 29.1 µM [inhibitor, single point]"}, {"compound": "Cc1ccccc1-n1ncc2c1CC(C)(C)CC2NC(=O)CCCN1CCCC1=O", "note": "(stereo unspecified)", "Potency": "inconclusive: 18.4 µM [inhibitor, single point]"}, {"compound": "CN(C)CCCN(Cc1ccccc1)C(=S)Nc1cccc(C(F)(F)F)c1", "Potency": "inconclusive: 29.1 µM [inhibitor, single point]"}, {"compound": "Cc1cc(NC(=O)C(C)C)n(-c2nc3ccccc3s2)n1", "Potency": "inconclusive: 13 µM [inhibitor, partial curve]"}, {"compound": "Cc1ccnc(NC(=O)CCCOc2cc(=O)n(C)c3ccccc23)c1", "Potency": "inconclusive: 23.1 µM [inhibitor, single point]"}, {"compound": "CC(C)(CNC(=O)c1cccs1)CNC(=O)c1cccs1", "Potency": "inactive"}, {"compound": "CCc1noc(C)c1C(=O)N1CCCC(CCC(=O)NCc2cccc(OC)c2)C1", "note": "(stereo unspecified)", "Potency": "inconclusive: 25.9 µM [inhibitor, single point]"}, {"compound": "CC(C)C(=O)Nc1nnc(SCC(=O)NCc2ccco2)s1", "Potency": "inactive"}, {"compound": "CCOC(=O)C1=C(C)NC(C)=C(C(=O)OCC)C1C(=O)OCC(=O)N(C)Cc1ccccc1", "Potency": "inactive"}, {"compound": "COc1ccc(/C=C2/C(=O)ON=C2C)cc1Br", "Potency": "inconclusive: 29.1 µM [inhibitor, partial curve, poor fit]"}, {"compound": "COc1ccc(NC(=O)Cn2nc(-c3ccccc3)c3cnc4ccc(C)cc4c32)cc1", "Potency": "inconclusive: 25.9 µM [inhibitor, single point]"}, {"compound": "Cc1nc2ccn(Cc3ccco3)c(=O)c2cc1C(=O)Nc1ccc(F)cc1", "Potency": "inconclusive: 16.4 µM [inhibitor, single point]"}, {"compound": "CCCCNC(=S)NNC(=O)c1nn(C)cc1Cl", "Potency": "inactive"}, {"compound": "CN(C)CC(O)c1ccc(C=Cc2ccc(Cl)cc2)cc1", "note": "(stereo unspecified)", "Potency": "active: 7.31 µM"}, {"compound": "CNc1cc(-c2cccc(C(=O)N3CCOCC3)c2)ncn1", "Potency": "inactive"}, {"compound": "O=C(N/N=C\\C=C\\c1ccc2c(c1)OCO2)c1cccnc1", "Potency": "inconclusive: 29.1 µM [inhibitor, single point]"}, {"compound": "CCOC(=O)C1=C(C)NC(C)=C(C(=O)OCC)C1C(=O)OCC(=O)NCc1ccco1", "Potency": "active: 20.6 µM"}, {"compound": "CCOC(=O)N1CCN(C(c2ccc(C(C)C)cc2)c2sc3nc(C)nn3c2O)CC1", "note": "(stereo unspecified)", "Potency": "inconclusive: 29.1 µM [inhibitor, single point]"}, {"compound": "O=c1[nH]c(C2CCN(S(=O)(=O)c3ccccc3)CC2)nc2c1nnn2Cc1ccccc1", "Potency": "inconclusive: 20.6 µM [inhibitor, single point]"}, {"compound": "CC(C(=O)NCC1CCCCC1)N(C)Cc1cccc(Cl)c1", "note": "(stereo unspecified)", "Potency": "inconclusive: 29.1 µM [inhibitor, single point]"}, {"compound": "Cc1ccc(N2C(=O)CS(=O)(=O)C23C(=O)N(Cc2ccccc2C)c2ccccc23)cc1Cl", "note": "(stereo unspecified)", "Potency": "inconclusive: 29.1 µM [inhibitor, partial curve, poor fit]"}, {"compound": "COc1cccc(NC(=O)c2cc(-c3ccncc3)nc3c(C)cc(C)cc23)c1", "Potency": "active: 23.1 µM"}, {"compound": "CC1CCC2(CC1)Nc1ccccc1C(=O)N2c1ccccc1", "note": "(stereo unspecified)", "Potency": "inactive"}, {"compound": "CCCc1ccc(Oc2cn[nH]c2-c2ccc(O)c(C)c2O)cc1", "Potency": "inconclusive: 25.9 µM [inhibitor, single point]"}, {"compound": "CN(Cc1ccccc1)C(=O)COc1ccccc1", "Potency": "inconclusive: 20 µM [inhibitor, single point]"}, {"compound": "O=C(COC(=O)c1ccc[nH]c1=O)NCC1CCCO1", "note": "(stereo unspecified)", "Potency": "inactive"}, {"compound": "C=C1C(=O)[C@]23C[C@H]1CC[C@H]2[C@]1(C)[C@@H](OC(C)=O)CC[C@@](C)(C(=O)O)[C@H]1C[C@@H]3O", "Potency": "active: 1.03 µM"}, {"compound": "COc1ccc(NC2=C3CC(C)CC=C3N(c3ccc(OC)cc3)C2=O)cc1", "note": "(stereo unspecified)", "Potency": "inconclusive: 29.1 µM [inhibitor, single point]"}, {"compound": "N#CCC(=N)N1CCN(c2ccc(Cl)cc2)CC1", "Potency": "inconclusive: 20.6 µM [inhibitor, single point]"}, {"compound": "Oc1ccc(/C=N/Nc2ncnc3c2ncn3Cc2ccccc2)cc1O", "Potency": "inconclusive: 20.6 µM [inhibitor, single point]"}, {"compound": "CCOc1ccc(-n2ccnc(SCC(=O)NCc3cccc(OC)c3)c2=O)cc1", "Potency": "active: 23.1 µM"}, {"compound": "O=[N+]([O-])c1cc([N+](=O)[O-])c(Oc2c(F)ccc(F)c2F)cc1NN1CCCCC1", "Potency": "inconclusive: 16.4 µM [inhibitor, partial curve]"}, {"compound": "O=C(CSc1nnc(SCc2ccc(Cl)cc2)s1)N/N=C/c1ccccc1C(=O)O", "Potency": "inconclusive: 29.1 µM [inhibitor, single point]"}, {"compound": "COc1ccc(-n2c(=O)[nH]c3cc(C(=O)NCCc4ccc(Cl)cc4)ccc3c2=O)cc1OC", "Potency": "active: 9.2 µM and active: 14.6 µM"}, {"compound": "O=C(CCc1ccccc1Cl)Nc1ccc(S(=O)(=O)Nc2nccs2)cc1", "Potency": "inactive"}, {"compound": "COc1cc(CC(=O)Nc2ccc(S(=O)(=O)NC3=NCCCCC3)cc2)cc(OC)c1OC", "Potency": "inactive"}, {"compound": "COc1ccc(C2=Nc3ccccc3N(C(=O)c3cccnc3)C2C(=O)NC2CCCC2)cc1", "note": "(stereo unspecified)", "Potency": "inactive"}, {"compound": "Cc1ccc(NS(=O)(=O)c2ccc(C(=O)NCc3ccncc3)cc2)cc1", "Potency": "inconclusive: 18.4 µM [inhibitor, single point]"}, {"compound": "CCC(Sc1ncccc1C(=O)Oc1ccccc1Cl)C(=O)Nc1ccccc1OC", "note": "(stereo unspecified)", "Potency": "inconclusive: 16.4 µM [inhibitor, single point]"}, {"compound": "Cn1nc(C(C)(C)C)cc1NC(=O)C1(C)CCN1C(=O)C1(c2ccccc2)CC1", "note": "(stereo unspecified)", "Potency": "inconclusive: 23.1 µM [inhibitor, single point]"}, {"compound": "O=C(Nc1cccnc1)c1ccc([N+](=O)[O-])s1", "Potency": "active: 0.651 µM"}, {"compound": "Cc1ccc(-n2c(O)c(C=NCc3ccccn3)c3ccccc3c2=O)cc1C", "Potency": "active: 25.9 µM"}, {"compound": "Nc1ncnc2c1ncn2[C@@H]1O[C@H](C(=O)N[C@@H](CO)Cc2ccccc2)[C@@H](O)[C@H]1O", "Potency": "inactive"}, {"compound": "CC[C@H](C)Cc1cn([C@@H](CCCN=C(NC(=O)OC(C)(C)C)NC(=O)OC(C)(C)C)C(=O)NCCCCCCCCCCC(=O)N2CCN(C(=O)OC(C)(C)C)CC2)nn1", "Potency": "active: 7.31 µM"}, {"compound": "Cc1nn(C)c2c1c(C(F)(F)F)cc(=O)n2C(C)C(=O)NCCC(C)C", "note": "(stereo unspecified)", "Potency": "inconclusive: 29.1 µM [inhibitor, single point]"}, {"compound": "Cc1cc(C(=O)N2CCCC(C(=O)c3ccc4ccccc4c3)C2)nn1C", "note": "(stereo unspecified)", "Potency": "active: 20.6 µM"}, {"compound": "COc1cc(OC)c(C(=O)OCC(=O)N2CC(=O)Nc3ccccc32)cc1OC", "Potency": "inactive"}, {"compound": "Cc1csc(NC(=O)c2cccc(S(=O)(=O)N3CCN(C)CC3)c2)n1", "Potency": "inconclusive: 29.1 µM [inhibitor, single point]"}, {"compound": "CCCNC(=O)c1ccc2c(c1)nc(C)n2-c1cccc(C)c1", "Potency": "inconclusive: 25.9 µM [inhibitor, single point] and inconclusive: 13 µM [inhibitor, partial curve, poor fit]"}]}]}
